From the supplement of paper PMC8728848
The other results are listed elsewhere or left out.

Tests used:
Assay in all cases: glycan array binding signal (z-score within array); higher = stronger binding
Conditions in all cases: glycan notation: IUPAC condensed, linker removed
Gal(a1-6)Glc = target: Gal(a1-6)Glc
Outline: (§1)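 Glycan array binding is given as a within-array Z-score, which can be read as non-binding when negative. The arrays, 3228 of them, came from the Consortium for Functional Glycomics database and were retained only where the protein sequence was available. Z-scores were averaged across arrays of the same protein sequence at different concentrations or buffers and across linkers.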

Gal(b1-2)Gal = target: Gal(b1-2)Gal
Outline: as §1

Gal(b1-3)Gal = target: Gal(b1-3)Gal
Outline: as §1

Gal(b1-3)Gal(b1-4)GlcNAc = target: Gal(b1-3)Gal(b1-4)GlcNAc
Outline: as §1

Gal(b1-3)GalNAc = target: Gal(b1-3)GalNAc
Outline: as §1

[1] = target: Gal(b1-3)GalNAc(a1-3)[Fuc(a1-2)]Gal(b1-4)Glc
Outline: as §1

[2] = target: Gal(b1-3)GalNAc(a1-3)[Fuc(a1-2)]Gal(b1-4)GlcNAc
Outline: as §1

Gal(b1-3)GalNAc(b1-3)Gal = target: Gal(b1-3)GalNAc(b1-3)Gal
Outline: as §1

[3] = target: Gal(b1-3)GalNAc(b1-3)Gal(a1-4)Gal(b1-4)Glc
Outline: as §1

[4] = target: Gal(b1-3)GalNAc(b1-4)Gal(b1-4)Glc
Outline: as §1

[5] = target: Gal(b1-3)GalNAc(b1-4)[Neu5Ac(a2-3)]Gal(b1-4)Glc
Outline: as §1

Gal(b1-3)GlcNAc = target: Gal(b1-3)GlcNAc
Outline: as §1

[6] = target: Gal(b1-3)GlcNAc(a1-3)Gal(b1-4)GlcNAc
Outline: as §1

[7] = target: Gal(b1-3)GlcNAc(a1-6)Gal(b1-4)GlcNAc
Outline: as §1

Gal(b1-3)GlcNAc(b1-2)Man = target: Gal(b1-3)GlcNAc(b1-2)Man
Outline: as §1

[8] = target: Gal(b1-3)GlcNAc(b1-2)Man(a1-3)[Gal(b1-3)GlcNAc(b1-2)Man(a1-6)]Man(b1-4)GlcNAc(b1-4)GlcNAc
Outline: as §1

[9] = target: Gal(b1-3)GlcNAc(b1-2)Man(a1-3)[Gal(b1-3)GlcNAc(b1-2)Man(a1-6)]Man(b1-4)GlcNAc(b1-4)[Fuc(a1-6)]GlcNAc
Outline: as §1

[10] = target: Gal(b1-3)GlcNAc(b1-2)Man(a1-3)[GlcNAc(b1-4)][Gal(b1-3)GlcNAc(b1-2)Man(a1-6)]Man(b1-4)GlcNAc(b1-4)GlcNAc
Outline: as §1

[11] = target: Gal(b1-3)GlcNAc(b1-2)[Gal(b1-3)GlcNAc(b1-6)]Man(a1-6)[Gal(b1-3)GlcNAc(b1-2)Man(a1-3)]Man(b1-4)GlcNAc(b1-4)GlcNAc
Outline: as §1

[12] = target: Gal(b1-3)GlcNAc(b1-3)Gal(b1-3)GlcNAc
Outline: as §1

[13] = target: Gal(b1-3)GlcNAc(b1-3)Gal(b1-4)Glc
Outline: as §1

[14] = target: Gal(b1-3)GlcNAc(b1-3)Gal(b1-4)GlcNAc
Outline: as §1

[15] = target: Gal(b1-3)GlcNAc(b1-3)Gal(b1-4)GlcNAc(b1-2)Man(a1-3)[Gal(b1-3)GlcNAc(b1-3)Gal(b1-4)GlcNAc(b1-2)Man(a1-6)]Man(b1-4)GlcNAc(b1-4)GlcNAc
Outline: as §1

[16] = target: Gal(b1-3)GlcNAc(b1-3)Gal(b1-4)GlcNAc(b1-2)[Gal(b1-3)GlcNAc(b1-3)Gal(b1-4)GlcNAc(b1-6)]Man(a1-6)[Gal(b1-3)GlcNAc(b1-3)Gal(b1-4)GlcNAc(b1-2)Man(a1-3)]Man(b1-4)GlcNAc(b1-4)[Fuc(a1-6)]GlcNAc
Outline: as §1

[17] = target: Gal(b1-3)GlcNAc(b1-3)Gal(b1-4)GlcNAc(b1-3)Gal(b1-4)GlcNAc(b1-2)[Gal(b1-3)GlcNAc(b1-3)Gal(b1-4)GlcNAc(b1-3)Gal(b1-4)GlcNAc(b1-6)]Man(a1-6)[Gal(b1-3)GlcNAc(b1-3)Gal(b1-4)GlcNAc(b1-3)Gal(b1-4)GlcNAc(b1-2)Man(a1-3)]Man(b1-4)GlcNAc(b1-4)[Fuc(a1-6)]GlcNAc
Outline: as §1

[18] = target: Gal(b1-3)GlcNAc(b1-3)Gal(b1-4)GlcNAc(b1-6)[Gal(b1-3)GlcNAc(b1-3)]Gal(b1-4)Glc
Outline: as §1

[19] = target: Gal(b1-3)GlcNAc(b1-3)Gal(b1-4)[Fuc(a1-3)]GlcNAc
Outline: as §1

[20] = target: Gal(b1-3)GlcNAc(b1-3)Gal(b1-4)[Fuc(a1-3)]GlcNAc(b1-6)[Gal(b1-3)GlcNAc(b1-3)]Gal(b1-4)Glc
Outline: as §1

[21] = target: Gal(b1-3)GlcNAc(b1-3)GalNAc
Outline: as §1

[22] = target: Gal(b1-3)GlcNAc(b1-6)Gal(b1-4)GlcNAc
Outline: as §1

[23] = target: Gal(b1-3)GlcNAc(b1-6)GalNAc
Outline: as §1

[24] = target: Gal(b1-3)GlcNAc(b1-6)[Gal(b1-3)]GalNAc
Outline: as §1

Gal(b1-3)GlcNAc6S = target: Gal(b1-3)GlcNAc6S
Outline: as §1

[25] = target: Gal(b1-3)[Fuc(a1-4)]GlcNAc
Outline: as §1

[26] = target: Gal(b1-3)[Fuc(a1-4)]GlcNAc(b1-2)Man
Outline: as §1

[27] = target: Gal(b1-3)[Fuc(a1-4)]GlcNAc(b1-2)Man(a1-3)[Gal(b1-3)[Fuc(a1-4)]GlcNAc(b1-2)Man(a1-6)]Man(b1-4)GlcNAc(b1-4)[Fuc(a1-6)]GlcNAc
Outline: as §1

[28] = target: Gal(b1-3)[Fuc(a1-4)]GlcNAc(b1-3)Gal(b1-3)[Fuc(a1-4)]GlcNAc
Outline: as §1

B1: AT5G01260(PC)(40) (Arabidopsis thaliana), Q9LFB0 (protein)
chain: MIGIGRTLTSSSPSKIILEDLPPGIYRYGTEIFTSVPRKTFHHIKFLRLDSAQSSRILKPVPLRSSSIKDSQVNVEDEEIEASNKTVRVRFQLRKECVFGEHFFIVGDDPVFGGLWDPETALPLNWSDGNVWTVDLDLPVGRLVEFKLLLKAQTGEILWQPGPNRALETWETNKTIRICEDWDNADLQMMIEEDFVPYTNISSIGSEDEDEVLGSVQQNSSVVAVENAGYVSDESAQNSSFSIQSEKTMEPSNGALTAREVIKEAMFTEEESPVLVPGLIPLSDLDNEQVEVINEGKAETFPEVDKKQEPKAERNKKAKVKAISLFEKSEQEAVKSVEQRQYNAVEEEQQRLETEPLGTPDVLFENDIQWGRRTLYKLLSNFRLF
glycan array binding signal (z-score) (Gal(a1-6)Glc): 0.604
glycan array binding signal (z-score) (Gal(b1-2)Gal): -0.57
glycan array binding signal (z-score) (Gal(b1-3)Gal): 0.058
glycan array binding signal (z-score) (Gal(b1-3)Gal(b1-4)GlcNAc): 0.044
glycan array binding signal (z-score) (Gal(b1-3)GalNAc): -0.493
glycan array binding signal (z-score) [1]: -0.096
glycan array binding signal (z-score) [2]: -0.621
glycan array binding signal (z-score) (Gal(b1-3)GalNAc(b1-3)Gal): -0.418
glycan array binding signal (z-score) [3]: 0.025
glycan array binding signal (z-score) [4]: 2.16
glycan array binding signal (z-score) [5]: -0.614
glycan array binding signal (z-score) (Gal(b1-3)GlcNAc): -0.349
glycan array binding signal (z-score) [6]: -0.517
glycan array binding signal (z-score) [7]: 0.125
glycan array binding signal (z-score) (Gal(b1-3)GlcNAc(b1-2)Man): -0.276
glycan array binding signal (z-score) [8]: 0.891
glycan array binding signal (z-score) [9]: 0.082
glycan array binding signal (z-score) [10]: 0.088
glycan array binding signal (z-score) [11]: 0.097
glycan array binding signal (z-score) [12]: -0.165
glycan array binding signal (z-score) [13]: 0.239
glycan array binding signal (z-score) [14]: -0.063
glycan array binding signal (z-score) [15]: 0.194
glycan array binding signal (z-score) [16]: 0.533
glycan array binding signal (z-score) [17]: 0.184
glycan array binding signal (z-score) [18]: -0.348
glycan array binding signal (z-score) [19]: -0.113
glycan array binding signal (z-score) [20]: -0.193
glycan array binding signal (z-score) [21]: 0.137
glycan array binding signal (z-score) [22]: -0.175
glycan array binding signal (z-score) [23]: -0.301
glycan array binding signal (z-score) [24]: -0.659
glycan array binding signal (z-score) (Gal(b1-3)GlcNAc6S): 0.146
glycan array binding signal (z-score) [25]: -0.278
glycan array binding signal (z-score) [26]: -0.564
glycan array binding signal (z-score) [27]: 0.147
glycan array binding signal (z-score) [28]: -0.337
